This note sets out measurements from PMC4336329 (PLoS ONE, 2015).

About 14,000 (4.5%) of roughly 310,000 compounds showed an effect of 50% or more. The effect is printed as a negative number. The list shows a part of the results.
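Further: peak tail current of the secondary pulse compared with the same well before compound.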

The target of this experiment is human ether-à-go-go-related gene (hERG) potassium channel (human, UniProt Q12809). Description: primary screen, population patch clamp on CHO cells stably expressing hERG.
human ether-à-go-go-related gene (hERG) potassium channel, sequence (Q12809 whole entry, looked up): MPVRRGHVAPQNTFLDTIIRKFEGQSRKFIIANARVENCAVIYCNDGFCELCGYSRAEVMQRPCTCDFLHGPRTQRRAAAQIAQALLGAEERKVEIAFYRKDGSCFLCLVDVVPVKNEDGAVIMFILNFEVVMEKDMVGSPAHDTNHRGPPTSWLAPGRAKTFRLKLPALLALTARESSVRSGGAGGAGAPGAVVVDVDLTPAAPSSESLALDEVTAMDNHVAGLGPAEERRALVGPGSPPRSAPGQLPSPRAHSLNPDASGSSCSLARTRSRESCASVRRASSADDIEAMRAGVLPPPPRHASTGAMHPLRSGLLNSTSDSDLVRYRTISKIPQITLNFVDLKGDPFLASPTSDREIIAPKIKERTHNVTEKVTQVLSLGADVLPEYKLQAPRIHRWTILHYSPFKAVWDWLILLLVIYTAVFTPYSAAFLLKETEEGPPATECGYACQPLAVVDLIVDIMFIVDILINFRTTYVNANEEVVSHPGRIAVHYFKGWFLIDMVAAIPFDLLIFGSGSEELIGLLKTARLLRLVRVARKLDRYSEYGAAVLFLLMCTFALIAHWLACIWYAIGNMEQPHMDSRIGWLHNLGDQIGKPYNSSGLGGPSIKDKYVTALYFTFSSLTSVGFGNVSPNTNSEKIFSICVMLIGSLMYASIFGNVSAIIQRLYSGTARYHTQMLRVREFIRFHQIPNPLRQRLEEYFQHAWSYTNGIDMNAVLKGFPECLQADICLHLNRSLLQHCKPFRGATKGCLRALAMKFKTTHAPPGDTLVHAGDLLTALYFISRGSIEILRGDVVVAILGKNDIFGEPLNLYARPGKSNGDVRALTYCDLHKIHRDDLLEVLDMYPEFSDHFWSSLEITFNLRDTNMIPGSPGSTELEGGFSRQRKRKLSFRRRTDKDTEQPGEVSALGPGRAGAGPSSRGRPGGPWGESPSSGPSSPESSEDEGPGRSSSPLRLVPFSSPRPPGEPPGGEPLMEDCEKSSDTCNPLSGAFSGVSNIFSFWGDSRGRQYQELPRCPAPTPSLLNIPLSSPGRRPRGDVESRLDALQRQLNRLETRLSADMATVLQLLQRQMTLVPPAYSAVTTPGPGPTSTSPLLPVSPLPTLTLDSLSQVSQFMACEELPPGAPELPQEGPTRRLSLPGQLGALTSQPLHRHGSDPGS
As for `C=CCOc1ccc(/C(O)=C2/C(=O)C(=O)N(CCN3CCOCC3)C2c2ccc(C)cc2)cc1` (stereo not shown), the “hERG current change (%, negative = inhibition) at 10uM” value is listed as -8.77%.

For `Cc1cccc(OCc2ccc(C(=O)N3CCOCC3)o2)c1`, the “hERG current change (%, negative = inhibition) at 10uM” value was found to be 15%.

`Fc1ccc(NC(=S)N2CCCC(c3ccccc3)=N2)cc1`: the “hERG current change (%, negative = inhibition) at 10uM” value is -3.2%.

In the case of `Cc1ccc2cccc(S(=O)(=O)NC3CCS(=O)(=O)C3)c2n1` (stereo not shown), the “hERG current change (%, negative = inhibition) at 10uM” value is -7.02%.

As for `CC1CCCN(C(=O)Cn2nnc(-c3ccc([N+](=O)[O-])cc3)n2)C1` (stereo not shown), the “hERG current change (%, negative = inhibition) at 10uM” value is listed as -11.7%.

For `CC/C(=N\NC(=O)C1CC1)c1cccc(Cl)c1`, the “hERG current change (%, negative = inhibition) at 10uM” value worked out at 30.9%.

Turning to `COc1ccc(OC)c(C2=C[N+](=O)C(C)(C)C(C)(C)N2[O-])c1`, the “hERG current change (%, negative = inhibition) at 10uM” value is -3.85%.

Turning to `CCC1CCC(C(=O)NC(CCSC)C(=O)NCCN(CC(C)C)CC(C)C)CC1` (stereo not shown), the “hERG current change (%, negative = inhibition) at 10uM” value is on record as -34.4%.

As for `CC(C)(C)NC(=O)CN(C(=O)CS(=O)CC(=O)Nc1ccc(F)cc1)c1ccc2c(c1)OCCO2` (stereo not shown), the “hERG current change (%, negative = inhibition) at 10uM” value is 6.88%.

Consider `CC(C)C(CC(=O)N1CCCCC1)C1CCOC(C)(C)C1` (stereo not shown), for which the “hERG current change (%, negative = inhibition) at 10uM” value was -2.24%.

Consider `COc1ccc(NCC(=O)N2CCCC2)cc1Cl`, for which the “hERG current change (%, negative = inhibition) at 10uM” value is 8.2%.

On to `O=c1[nH]nc(CNc2ccc(OC(F)(F)F)cc2)c2ccccc12`, for which the “hERG current change (%, negative = inhibition) at 10uM” value was -27.2%.

For the compound `COc1ccc(N2CCN(CC(=O)Nc3c(C)cc(C)cc3C)CC2)cc1`, the “hERG current change (%, negative = inhibition) at 10uM” value is 0.738%.

For `CC(C)n1cnc2c(oc3ccccc32)c1=O`, the “hERG current change (%, negative = inhibition) at 10uM” value turned out to be 3.35%.

With `COc1ccc(OC)c(C(=O)N(C)C2CCCN(Cc3ccccc3F)C2)c1` (stereo not shown), the “hERG current change (%, negative = inhibition) at 10uM” value is -4.14%.

Regarding `COc1ccc2nc(NC(=O)C3CCN(S(=O)(=O)c4cccc5nsnc45)CC3)sc2c1`, the “hERG current change (%, negative = inhibition) at 10uM” value worked out at 0.473%.

With `CCOCCCNC(=O)CCc1ccc(S(=O)(=O)Nc2ccc(C)cc2)cc1`, the “hERG current change (%, negative = inhibition) at 10uM” value is 7.79%.

Regarding `O=C(c1ccc(Br)cc1)N(C1=NCCCCS1)c1ccccc1`, the “hERG current change (%, negative = inhibition) at 10uM” value is reported as -4.82%.

With `C/C=C(\C)CN1CCC(n2nccc2NC(=O)CCOc2ccccc2)CC1`, the “hERG current change (%, negative = inhibition) at 10uM” value was -31.5%.

Regarding `Cn1cnc([N+](=O)[O-])c1Sc1nc2ccccc2[nH]1`, the “hERG current change (%, negative = inhibition) at 10uM” value was determined as 5.38%.

Regarding `O=C(c1ccccc1)C(c1ccccc1)c1ccccc1`, the “hERG current change (%, negative = inhibition) at 10uM” value was -2.7%.

In the case of `COCCn1c(C)cc(/C=C(\C#N)C(=O)OCC(=O)N(C)c2c(N)n(Cc3ccccc3)c(=O)[nH]c2=O)c1C`, the “hERG current change (%, negative = inhibition) at 10uM” value stood at 2.84%.

In the case of `O=C(O)CCN1C(=O)S/C(=C\c2cccnc2)C1=O`, the “hERG current change (%, negative = inhibition) at 10uM” value is recorded as 13.6%.

Turning to `COc1ccc(-c2csc(NC(=O)CSc3nc(C)nc4sc(C(=O)O)c(C)c34)n2)cc1`, the “hERG current change (%, negative = inhibition) at 10uM” value worked out at 11.9%.

On to `Cc1ccc(S(=O)(=O)NCC(=O)NCc2cc(=O)n(C)c(=O)n2C)cc1`, for which the “hERG current change (%, negative = inhibition) at 10uM” value is recorded as 26.1%.

Take `Cc1ccc(NC(=O)CC2CS(=O)(=O)CC2CC(=O)Nc2ccc(C)c(C)c2)cc1C` (stereo not shown): the “hERG current change (%, negative = inhibition) at 10uM” value amounted to 6.08%.

Regarding `FC(F)(F)c1cccc(N2CCN(CC3CC=CCC3)CC2)c1` (stereo not shown), the “hERG current change (%, negative = inhibition) at 10uM” value is given as -4.59%.

Consider `CN(C(=O)COC(=O)c1cn(C)c2ccccc12)C1CCCCC1`, for which the “hERG current change (%, negative = inhibition) at 10uM” value is 6.55%.

As for `COc1ccc(Cl)cc1NC(=O)C(=O)NCc1ccncc1`, the “hERG current change (%, negative = inhibition) at 10uM” value is on record as -27.5%.

Consider `O=C(NC(=S)N1CCOCC1)c1ccc(F)cc1`, for which the “hERG current change (%, negative = inhibition) at 10uM” value came to 24.4%.

`O=C(NCc1ccncc1)C(=O)NCC(c1ccco1)N1CCN(c2ccc(F)cc2)CC1` (stereo not shown): the “hERG current change (%, negative = inhibition) at 10uM” value is listed as -27.2%.

Consider `CCC(C(=O)Nc1ccccc1)c1ccccc1` (stereo not shown), for which the “hERG current change (%, negative = inhibition) at 10uM” value turned out to be 7.86%.

For `Cc1ccc(Nc2ncccc2C(N)=O)cc1`, the “hERG current change (%, negative = inhibition) at 10uM” value is on record as 19.5%.

`O=C(NNc1ccccc1)C(=O)NNS(=O)(=O)c1ccc(CCCl)cc1`: the “hERG current change (%, negative = inhibition) at 10uM” value was 2.82%.

With `Cc1nnc(NC(=O)CSc2nc3c(c(=O)n(C)c(=O)n3C)n2C(C)C)s1`, the “hERG current change (%, negative = inhibition) at 10uM” value is given as -0.769%.

For the compound `Cc1ccc(C(=O)Cn2c(C(=O)OCCO)cc3ccccc32)cc1`, the “hERG current change (%, negative = inhibition) at 10uM” value was 6.92%.

Regarding `Cc1ccc(OCCNc2cc(N3CCN(CCO)CC3)ccc2[N+](=O)[O-])cc1C`, the “hERG current change (%, negative = inhibition) at 10uM” value is on record as -7.99%.

In the case of `CC1CCCCN1C(=O)c1cc2nc(-c3ccccc3)cc(-c3ccccc3)n2n1` (stereo not shown), the “hERG current change (%, negative = inhibition) at 10uM” value is reported as -14.5%.

For the compound `O=C(CCCN1C(=O)c2ccccc2C1=O)Nc1ccccn1`, the “hERG current change (%, negative = inhibition) at 10uM” value was -8.39%.

For `COCc1cc(C)nc(SCC(=O)NC2CCCCC2C)c1C#N` (stereo not shown), the “hERG current change (%, negative = inhibition) at 10uM” value came to 17%.

Regarding `CCOc1ccccc1CSc1nc2ccccc2[nH]1`, the “hERG current change (%, negative = inhibition) at 10uM” value is recorded as -15.2%.

As to `COc1ccc(S(=O)(=O)N2CCCCC2)cc1NC(=S)Nc1ccccc1`, the “hERG current change (%, negative = inhibition) at 10uM” value worked out at 7.79%.

`COC(=O)C(C)N(C(=O)c1cccc(Cl)c1)c1c(C)cccc1C` (stereo not shown): the “hERG current change (%, negative = inhibition) at 10uM” value stood at 15%.
